The source gives no read counts; variants with many changes may rest on few reads.
B1: LINE1-full (parent)
chain: UACGUAGGUGGUUUUCCCCUGAUAGUGCUAAGGGGGCCUGGAAGUUUGGACUGGGCAGAGCUCAACACAGCGUGGCAAAGUGGCUGUGGCUAGACUGCCUCUCUGGAUUCCUCGUCACUCAGCAGGGCAUCUCUGAGAGAAAUGCC

Variants of: B1
Experiment: self-cleavage, relative activity (ratio to wild type); higher = more cleavage; in vitro, sequencing; the parent is a self-cleaving ribozyme

Variant	self-cleavage
U20G A117G A124G	0.31
U100C G122A U130C	2.14
G4A U47C G105A	0.87
U9C U39C A129U	0.9
A107G A121C U134A	2.3
U26C U39C U73A A117G	2.04
A22G U62C A107G	0
U91C U134C A142G	0.66
U62C A64G A121U U132C	0.14
U20C A24C U47A A142G	1.45
U26C G70A C101U	0.08
U13C A77U U108C C113U U115C A138G	0
G4C U5C U20C A77U A92G	0.78
U39C U109C A138G	0.77
U9A U13C G35U U39C C66G U73A A107G A124U	0.06
A64U U96A A117G G144A	0.47
A57G A69G G106A	0.3
U23C A69U U108C	0.1
U1C U87G U112C	0
U14A U20C G75U A77G C131U	0.81
U1A U46C U85A	0.3
U12A A78G U102A	0.21
G10A G33U U47C A79G	2.3
C17A A30G U134C	2.51

Variant	self-cleavage
C38A A129U A136G	1.36
U81A A107U A117C	1.67
U26C G72A A136G	1.54
U14A U108C C133U	0.87
U85C U87G A117G	0
U15C C103A U143A	0
U13C U46C A77U A78G A140G	1.44
U14C G36C A50G	0.59
U13C A67U A69G	0.07
U26C U46C G48U A59G A136G	0.07
U14C A65G A141G	0.14
U39A U52C A69U A94G	0
A22U U47G U62C	0.05
A92U U108C U112C A117G A141G	1.84
U20C U85A C101U U132C	0.12
C19A U20G A42G A43G C101U A140G	1.37
A22G A42G A124U	1.31
A50U A69G A92U A142G	0.22
U62C U96A A117G A121G	0
U112C U115C U132C	1.11
A65G U81A U109C U132C	0
U85C A92U A94U G139A	0.16
U12C G36U A117G	2.6
A42G U47C A57G	0.97

Variant	self-cleavage
U13C U39G A59G	0.34
U12C G89A U102A	0.08
U1A A50G A129U	0.78
U39C U130A U143C	1.25
U20A U85A A117G	0.23
U14C U85A A138G A141G U143C	0.09
U14C U87A C120A	0.07
U115C U119C A142G	2.71
U1C U47C C98U C133U	0.16
A43G U119A G135A	1.2
U46C C71U A142G	1.16
U1C U14A A121G	0.83
U87A G89C U115C	0.01
A77G U87A U143A	0.13
G36A U39C A43U A138U	1.53
U14C U85C U96A C113A	0.09
U12C U47G U62C	0.28
U12G U47A A67G A121U	0
U46C U47C C101U	0.47
A50G U134G A140G	0.97
A59U U102C U112C	0.35
U47A A77C U130C	0.93
G41A A42G U119A	1.25
U13A A79G G93A U119C A136U	0.02

Variant	self-cleavage
A42G A77G U115A	1.91
A65G C103A U112G A117U A142G	0.06
A65G A69G G106U G139U U143A	0
U13A U20A C116A A140G	0.53
U9C U20A A42G C98U	1.29
A24G U39C G58U U81C G114C	0.07
U39A A42G G44C A77G	1.73
A77U U119A A141U	1.18
G7U U20C G49A A59G A94G G125A C128U	0.1
U52C A65G U73A G122A U143C	0
U20G U87A U104C G126A	0.13
U91A A92G A141G	0.07
U14C U46C A129G A140G	1.06
U1C U73A A124U	1.29
U73C A79G A141G	1.67
U26C U109C U112C	0
A50G A67G G83A	0
A2G A50G A67U A138G A142G	0.13
A6G U73A U119C	1.84
U73C A92U U130C	0
A42G A64G U81A U87A A136G	0.15
U20C A78G U109C	1.73
U20C U26C G35A A124U	1.45
U26G U45C G48A U100A A117G A136G	0.66

Variant	self-cleavage
U62C A78U A79U	0.08
A6G A50U A59G U109A	0.21
U9A U45C A138G	1.38
U1C U5C G74U	1.09
U12C U13C A65G C98U	0.51
A67G U87A A142G	0.28
U96C U109C C123U	0.12
A6G U12G A42G U47A G135U A142G	0.22
A2U U15C C28A U81C U134A	0.84
U12C A22G A77G	1.84
A22U A141G A142G	1.87
U73A U85C U96A	0.06
U12C C19U G54A A69G G88A	0.05
U52G U62A U87A A142G	0
G97U U108C U132G	0.09
U45C U46A U91A U109C U112C U115A U119A	0.56
U46C U115A A138G C145U	1.19
A22G A59U U132C	1.3
G27A A78U A129U A140G	1.69
C37U A65U U96C A121U A138U	0.06
A30G U108C U130C	0.46
G27A U39A A79G A129G A142G	0.79
A43G A59G A78U G93A	0.02
U46C A121G A136G	2.22

Variant	self-cleavage
C18A C19U G34A G60U A77G	0.05
C37U U85C U104C U143C	0.1
G32A A79G U104C	0.87
A24C G40A U52A A67U U112C	0.16
U81A C99U A129U	0.78
U13C G27A C38U	0.74
U46C A65G A78G	0.09
A22U G49A C145U	0.87
U9C U26C A50U U115A U119C	2.12
U15C C71G U96C	0
U13C U14G U20A A65G U130C	0.37
U29C A57U A67C A129U	0
U39A U100A G114U	1.01
G36A U39A A121U U134C	1.19
A22G A57G U73A A107G	0
U47A A107G U108C U130C U143C	2.12
G82A U96C C146U	0.09
U45C U96C U132C A138G	0
U52C U96C U109C A142G	0
C3U A57G A94G	0
C37U U87A U134C A138G	0.03
U39A U62C U85C	0
U12A A57G U62A A117C A136G	0.11
U12G U13G A57G A77G	1.31

Variant	self-cleavage
U5A A50G U85C U115C	0
A22C A43G A77G	1.53
U15A A77U G88U U91A	0.04
A2U U85C U102A G125A	0.2
U39C A43G A77U	0.8
A31G G54A A92G U134A	0.08
U130C A141G U143A	1.29
U39G U47C U104C G114A	2.09
A22G A50G A69G	0.5
G34A A50G U52A A67G	0.42
U13C A24G A79G U134C	0.95
U39A A94U U130C	0.19
U15C G34U A43G C145G	2.35
U13C U15A U52C A124G G127U A129G	0.92
C18G G33U U108C	1.79
U12C U52A G58C	0.02
A30G G35A C37G	0.96
U9C U12G U14C	1.78
A50G U81C U96C U104A A141G	0
U39A A59G A94G G114A	0.18
U9C U12C A50G G58A C90U A121U	0.15
U14C U96C U100A	0.17
G55U A69U A138G	0.07

Reference: the RNAGym collection of RNA variant scans (doi:10.7554/elife.90254)
